From article PMC4336329 (PLoS ONE, 2015)
Screen size: about 310,000 compounds; about 14,000 (4.5%) showed an effect of 50% or more. Effects have a minus sign here. The list shows a part of the results.

Molecular target: human ether-à-go-go-related gene (hERG) potassium channel (human, UniProt Q12809)
Assay: primary screen, population patch clamp on CHO cells stably expressing hERG
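Further: peak tail current of the secondary pulse compared with the same well before compound.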

human ether-à-go-go-related gene (hERG) potassium channel, sequence (Q12809 whole entry, looked up): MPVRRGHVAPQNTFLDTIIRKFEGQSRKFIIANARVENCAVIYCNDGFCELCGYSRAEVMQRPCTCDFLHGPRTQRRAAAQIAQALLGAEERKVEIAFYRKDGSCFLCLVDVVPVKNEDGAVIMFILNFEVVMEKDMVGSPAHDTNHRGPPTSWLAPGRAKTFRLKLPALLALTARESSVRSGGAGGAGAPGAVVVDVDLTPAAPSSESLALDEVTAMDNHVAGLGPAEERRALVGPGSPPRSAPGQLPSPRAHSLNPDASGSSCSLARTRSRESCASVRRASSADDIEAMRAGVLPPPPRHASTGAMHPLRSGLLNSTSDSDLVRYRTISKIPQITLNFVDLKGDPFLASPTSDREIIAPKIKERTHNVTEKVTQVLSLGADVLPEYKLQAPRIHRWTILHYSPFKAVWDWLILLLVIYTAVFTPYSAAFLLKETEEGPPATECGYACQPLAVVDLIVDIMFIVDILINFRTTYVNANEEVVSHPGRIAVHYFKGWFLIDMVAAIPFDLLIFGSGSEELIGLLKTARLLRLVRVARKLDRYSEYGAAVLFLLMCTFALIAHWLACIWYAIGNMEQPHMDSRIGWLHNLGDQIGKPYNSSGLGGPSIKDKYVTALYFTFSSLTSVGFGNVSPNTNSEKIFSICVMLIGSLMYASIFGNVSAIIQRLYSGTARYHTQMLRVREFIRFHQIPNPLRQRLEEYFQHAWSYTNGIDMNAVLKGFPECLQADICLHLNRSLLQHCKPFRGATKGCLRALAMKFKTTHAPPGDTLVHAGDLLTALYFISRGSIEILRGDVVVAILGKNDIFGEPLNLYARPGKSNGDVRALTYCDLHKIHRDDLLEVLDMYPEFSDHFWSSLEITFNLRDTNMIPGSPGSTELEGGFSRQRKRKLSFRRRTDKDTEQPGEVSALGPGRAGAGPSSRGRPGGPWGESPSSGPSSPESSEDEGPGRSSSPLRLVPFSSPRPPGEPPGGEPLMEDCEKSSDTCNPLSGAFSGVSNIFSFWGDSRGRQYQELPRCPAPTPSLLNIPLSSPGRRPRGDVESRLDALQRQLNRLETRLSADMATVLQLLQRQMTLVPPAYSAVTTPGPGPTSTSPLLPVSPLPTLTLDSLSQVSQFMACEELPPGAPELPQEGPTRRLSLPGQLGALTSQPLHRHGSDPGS

Going from `C=CCn1c(=O)c2c(C)c(C)sc2n2c(Nc3ccccc3)nnc12` to `CSc1ccc(CNC(=O)C(C)n2nc(C)c3c(C)n(-c4ccccc4)nc3c2=O)cc1` (centres unmarked), the “hERG current change (%, negative = inhibition) at 10uM” value falls from 11.6% to -38.2%.

Going from `Cc1ccc(S(=O)(=O)N2CCCC2C(=O)OCc2nc3sc(C)c(C)c3c(=O)[nH]2)cc1` (centres unmarked) to `Cc1ccc(CN2CC(C(=O)Nc3ccc(S(=O)(=O)N4CCCCC4)cc3)CC2=O)cc1` (centres unmarked), the “hERG current change (%, negative = inhibition) at 10uM” value falls from 21.4% to -8.99%.

Going from `CCCOc1ccc(/C(O)=C2/C(=O)C(=O)N(CCCn3ccnc3)C2c2ccco2)cc1` (centres unmarked) to `O=C(C1=C(O)C(=O)N(CCCn2ccnc2)C1c1ccc(F)cc1)c1ccco1` (centres unmarked), the “hERG current change (%, negative = inhibition) at 10uM” value rises from 13.9% to 15.8%.

Compared with `CCOc1cc(C(=O)Nc2ccc(F)cc2)cc(Br)c1OC`, `CCOc1ccc(CN(C)C(C)C(=O)Nc2ccc([N+](=O)[O-])cc2Cl)cc1OC` (centres unmarked) is lower in “hERG current change (%, negative = inhibition) at 10uM” value: 18.9% for the first, -42.3% for the second.

Going from `O=C(Nc1ccc(F)c(F)c1)C1CCCN(S(=O)(=O)c2cccc3nonc23)C1` (centres unmarked) to `O=C(C1CCN(S(=O)(=O)c2cccc3nonc23)CC1)N1CCCCC1`, the “hERG current change (%, negative = inhibition) at 10uM” value falls from 20.8% to 4.65%.

First: O=c1[nH]c(=O)n(Cc2ccc(F)cc2)c(O)c1C=NCc1cccnc1
Second: O=C(O)c1cccc(-n2cccc2/C=C2\NC(=O)N(Cc3ccc(F)cc3)C2=O)c1
The “hERG current change (%, negative = inhibition) at 10uM” value of the first is lower: -8.86% for the first, 9.83% for the second.

Going from `O=C(Cn1ccnc1)c1ccc(Cl)cc1` to `Cc1c(C(=O)O)cnc2cc(-c3ccc(Cl)cc3)nn12`, the “hERG current change (%, negative = inhibition) at 10uM” value rises from 4.52% to 20.4%.

Compared with `Cc1ccc(C(=O)O/N=C2\CCS(=O)(=O)c3sccc32)cc1`, `Cc1ccc(CN(C(=O)Cc2cccs2)C(C(=O)NC2CCCC2)c2ccncc2)cc1` (centres unmarked) is lower in “hERG current change (%, negative = inhibition) at 10uM” value: 16.6% for the first, -21.7% for the second.

First: COc1ccc(CNC(=O)C2(CC3CC(c4ccccc4)=NO3)CCN(C(=O)C3(C)CC3)CC2)cc1 (centres unmarked)
Second: CC(C)NC(=O)CC1(C(=O)NCc2ccc(Cl)cc2)CCCC1
The “hERG current change (%, negative = inhibition) at 10uM” value of the first is lower: -67% for the first, 29.1% for the second.

Compared with `Cc1nn(CC(=O)NCCc2ccccc2)c(=O)c2cccn12`, `Cc1cccc(C)c1C(=O)N[C@@H](Cc1ccccc1)C(=O)O` is lower in “hERG current change (%, negative = inhibition) at 10uM” value: 10.7% for the first, 8.83% for the second.

Going from `C=CCNC(=S)N/N=C/c1ccc(C(F)(F)F)cc1` to `O=C(N/N=C/c1ccccc1Cl)c1cccc(F)c1`, the “hERG current change (%, negative = inhibition) at 10uM” value falls from 9.58% to 1.24%.

First: O=C(NCCCN1CCCC1=O)c1cccc(Oc2ccccc2)c1
Second: COc1cccc(CC(=O)N[C@@H](CCSC)c2nc3ccccc3[nH]2)c1
The “hERG current change (%, negative = inhibition) at 10uM” value of the first is higher: 10.5% for the first, 2.98% for the second.

First: O=C(NCc1nnnn1-c1ccc(F)c(F)c1)C(=O)c1c[nH]c2ccccc12
Second: CC(C)(C)N(Cc1ccccc1)C(=O)COC(=O)CCc1c[nH]c2ccccc12
The “hERG current change (%, negative = inhibition) at 10uM” value of the first is higher: 6.24% for the first, -0.0832% for the second.

Going from `CCCc1cc(=O)oc2c(C)c(OCC(=O)NCCCN3CCOCC3)ccc12` to `Cc1c(C)c2ccc(OC(C)C(=O)N3CC[C@@]4(O)CCCC[C@H]4C3)c(C)c2oc1=O` (some centres unmarked), the “hERG current change (%, negative = inhibition) at 10uM” value rises from -20.2% to 14.9%.

First: O=C(Nc1cccc(-c2cn3c(n2)SCC3)c1)c1ccc2c(c1)OCO2
Second: Cc1ccc(C(NC(=O)/C=C\c2ccc3c(c2)OCO3)C(=O)Nc2ccc3c(c2)OCO3)cc1 (centres unmarked)
The “hERG current change (%, negative = inhibition) at 10uM” value of the first is lower: -3.9% for the first, -0.228% for the second.

Going from `Cc1ccc(NC(=O)Cc2cccs2)cc1Cl` to `CN(C)S(=O)(=O)c1cccc(NC(=O)COC(=O)/C=C/c2cccs2)c1`, the “hERG current change (%, negative = inhibition) at 10uM” value falls from 9.61% to -25%.

Going from `N=C1C(c2ccccc2)=C(O)CN1c1ccccc1N1CCOCC1` to `COc1ccc(-c2nn(-c3ccccc3)cc2/C=C\C(=O)N2CCOCC2)cc1[N+](=O)[O-]`, the “hERG current change (%, negative = inhibition) at 10uM” value falls from -14.6% to -34%.

Going from `COc1ccc(C(=O)C2CCCN(C(=O)c3cccc(Cn4cccn4)c3)C2)cc1F` (centres unmarked) to `COc1ccccc1NC(=O)C1CCCN(c2cnccn2)C1` (centres unmarked), the “hERG current change (%, negative = inhibition) at 10uM” value rises from -14.5% to 7.23%.

Compared with `Cc1nn(C)cc1-c1n[nH]c(=S)n1-c1ccc(Cl)cc1`, `Cc1nc2ccccc2nc(C)c1=NOCc1ccc(Cl)cc1Cl` is lower in “hERG current change (%, negative = inhibition) at 10uM” value: 29.1% for the first, -1.12% for the second.

Going from `CC1(C)CC(=O)C([N+](=O)[O-])=C(NCCCC(=O)O)C1.O` to `CCC/C(O)=C1\C(=O)CCCC1=NCCCCCC(=O)O`, the “hERG current change (%, negative = inhibition) at 10uM” value falls from 15% to 11.6%.

Going from `CCOC(=O)C1=C(CSc2nc3c(cc2C#N)CCC3)OC(N)=C(C#N)C1c1ccccc1.CN(C)C=O` (centres unmarked) to `COc1ccccc1Nc1c2c(nc3ccc(N)cc13)CCCC2`, the “hERG current change (%, negative = inhibition) at 10uM” value falls from 11.2% to -72.4%.

First: CCOc1ccccc1C(=O)NC1CC2CCCC(C1)N2Cc1ccccc1 (centres unmarked)
Second: CCOc1ccccc1N(CC(=O)Nc1cccnc1)S(=O)(=O)c1ccc(C)cc1
The “hERG current change (%, negative = inhibition) at 10uM” value of the first is lower: -54.5% for the first, -13.4% for the second.

First: Cc1cccc(C)c1NC(=O)Cn1nc(-c2ccccc2)nc1-c1ccccc1
Second: NS(=O)(=O)c1ccc2nc(-c3ccccc3)c(-c3ccccc3)nc2c1
The “hERG current change (%, negative = inhibition) at 10uM” value of the first is higher: 12.6% for the first, -21.8% for the second.

Going from `CCOc1cc(/C=C(\C#N)c2[nH]nc(N)c2C#N)ccc1O` to `Cc1nc2nc(N)nc(OCc3ccccc3)c2nc1C`, the “hERG current change (%, negative = inhibition) at 10uM” value rises from -8.98% to 4.32%.

Going from `COc1cccc2sc(N3CCN(c4nc5ccccc5s4)CC3)nc12` to `CCN(CC)c1nc(N2CCN(CCO)CC2)nc2ccccc12.Cl`, the “hERG current change (%, negative = inhibition) at 10uM” value falls from 10.9% to -27.8%.

First: COc1ccc2cc(N=Cc3nc(-c4ccc(C)cc4)oc3O)cnc2c1
Second: Cc1nn(-c2ccccc2)c(Cl)c1/C=N/Nc1nc2ccccc2[nH]1
The “hERG current change (%, negative = inhibition) at 10uM” value of the first is lower: 1.84% for the first, 10.3% for the second.

First: O=C(O)CCc1nc(-c2ccc(Cl)cc2)no1
Second: CC(C)(C)c1ccc(C(=O)NCc2nnc(SCC(=O)NCC3CCCO3)o2)cc1 (centres unmarked)
The “hERG current change (%, negative = inhibition) at 10uM” value of the first is lower: 12.1% for the first, 14.6% for the second.

Going from `Cc1cc(Cl)c(S(=O)(=O)N2CCN(c3ccccn3)CC2)cc1OCC(=O)NC1CCCCC1` to `CCS(=O)(=O)N1CCN(C(=O)c2cccc(OC)c2)CC1`, the “hERG current change (%, negative = inhibition) at 10uM” value rises from -56.9% to 6.21%.

First: O=C(NC1=NCCS1)c1ccccc1
Second: COC(=O)c1ccccc1NC(=O)C1CCCCC1C(=O)O (centres unmarked)
The “hERG current change (%, negative = inhibition) at 10uM” value of the first is higher: 16.4% for the first, -0.478% for the second.

First: CCCN1CCN(c2ncnc3c2nnn3Cc2ccccc2)CC1
Second: Cc1c(Br)c([N+](=O)[O-])nn1CC(=O)N1CCN(Cc2ccccc2)CC1
The “hERG current change (%, negative = inhibition) at 10uM” value of the first is higher: -16.2% for the first, -56.4% for the second.

Going from `CNS(=O)(=O)c1cccc(C(=O)NCC2(N3CCCCC3)CCCCC2)c1` to `CC(=O)c1cccc(NS(=O)(=O)c2ccc3c(c2)oc(=O)n3C)c1`, the “hERG current change (%, negative = inhibition) at 10uM” value rises from -18.3% to -6.14%.

Compared with `CCCCN1C(=O)C(=O)N(CC(=O)Nc2ccc(C(N)=O)cc2)C1=O`, `COc1ccccc1NC(=O)c1ccc(NC(=O)COC(=O)C2(C)CC2(Cl)Cl)cc1` (centres unmarked) is higher in “hERG current change (%, negative = inhibition) at 10uM” value: -11.6% for the first, -1.34% for the second.

Going from `CC(C)(C)C(=O)N1CCN(c2ccc([N+](=O)[O-])c(NCC3CCCO3)c2)CC1` (centres unmarked) to `CCc1ccc(CN2CCC(CO)(CC3CCCCO3)CC2)o1` (centres unmarked), the “hERG current change (%, negative = inhibition) at 10uM” value rises from -20.8% to -5.06%.

Going from `COc1ccc(NCCC#N)cc1` to `COc1nc(NCCO)nc(Nc2ccccc2F)n1`, the “hERG current change (%, negative = inhibition) at 10uM” value rises from 5.05% to 9.77%.

Going from `Cc1sc2nc(SCC(=O)N(CCO)CCO)n(C3CCCCC3)c(=O)c2c1C` to `CN(C(=O)CCN1C(=O)/C(=C/c2ccccc2F)SC1=S)C1CCS(=O)(=O)C1` (centres unmarked), the “hERG current change (%, negative = inhibition) at 10uM” value falls from 6.76% to -8.32%.

First: CCN(CC)CC(O)Cn1c(-c2ccccc2Cl)nc2ccccc21 (centres unmarked)
Second: CC(c1ccccc1)n1c(CO)nc2ccccc21 (centres unmarked)
The “hERG current change (%, negative = inhibition) at 10uM” value of the first is lower: -25.2% for the first, 21.6% for the second.

Compared with `NC(CC(=O)NC(c1ccccc1)(c1ccccc1)c1ccccc1)C(=O)O` (centres unmarked), `COc1cccc(CN(C)C(=O)c2ccccc2Sc2ccccc2C#N)c1` is lower in “hERG current change (%, negative = inhibition) at 10uM” value: 16.2% for the first, -13.4% for the second.

Compared with `Cc1cccc(-n2nc([N+](=O)[O-])c(=NCc3cccnc3)n2O)c1`, `Clc1cccc(CSc2ccc(-c3ccco3)nn2)c1` is higher in “hERG current change (%, negative = inhibition) at 10uM” value: -7.73% for the first, 7.39% for the second.

First: COC(C[C@@H]1O[C@H]1[C@H](O)[C@@H](C)OCc1ccccc1)OC
Second: COc1ccc(Nc2nc(C)nc3c2nnn3Cc2ccccc2)cc1OC
The “hERG current change (%, negative = inhibition) at 10uM” value of the first is lower: -4.39% for the first, -2.04% for the second.

First: CCn1c2ccccc2c2c3ncc4cccn4c3ccc21
Second: CS(=O)(=O)N(CCc1ccccc1)CC(=O)NCc1ccc2c(c1)OCO2
The “hERG current change (%, negative = inhibition) at 10uM” value of the first is higher: 18.9% for the first, -22.6% for the second.

First: C[C@H](NC(=O)OC(C)(C)C)C(=O)N/N=C/C1=Cc2ccccc2OC1
Second: COc1ccc(C(=O)NC(=O)COC(=O)C2COc3ccccc3O2)cc1 (centres unmarked)
The “hERG current change (%, negative = inhibition) at 10uM” value of the first is higher: 8.2% for the first, 0.535% for the second.

First: CCC(C)(c1ccc(C(=O)OC)s1)c1ccc(C(=O)OC)s1
Second: COc1ccc(NC(=O)CSc2nncn2N)c(OC)c1
The “hERG current change (%, negative = inhibition) at 10uM” value of the first is lower: 8% for the first, 20.4% for the second.

Compared with `Nc1c(Cl)ncnc1N/N=C/c1cccnc1`, `COc1ccc(OC)c(S(=O)(=O)Nc2cc(Cl)cc(Cl)c2)c1` is lower in “hERG current change (%, negative = inhibition) at 10uM” value: 6.9% for the first, -8.79% for the second.

Going from `CC(C)N(O)C(=O)NC(C)(C)C` to `CCNC(=S)NNC(=O)c1csc(C)c1`, the “hERG current change (%, negative = inhibition) at 10uM” value rises from 11.5% to 28.6%.

With `CCC(=O)NNc1nc2c(F)cc(F)cc2s1` the “hERG current change (%, negative = inhibition) at 10uM” value was 9.79%.
